The target of the assay is IsdB NEAT1-NEAT2 (aa residues 48-480) (S. aureus SH1000) (UniProt Q2FZF0). Put plainly: ELISA; recombinant CWA proteins coated at 1 μg/well (0.1 M sodium carbonate, pH 9.5), 1 μg/well of vWF in PBS for 1 h at 22 °C, detected with rabbit anti-vWF IgG; also with ristocetin-treated vWF on immobilised IsdB.
Sequence of UniProt Q2FZF0 (Q2FZF0 48-480): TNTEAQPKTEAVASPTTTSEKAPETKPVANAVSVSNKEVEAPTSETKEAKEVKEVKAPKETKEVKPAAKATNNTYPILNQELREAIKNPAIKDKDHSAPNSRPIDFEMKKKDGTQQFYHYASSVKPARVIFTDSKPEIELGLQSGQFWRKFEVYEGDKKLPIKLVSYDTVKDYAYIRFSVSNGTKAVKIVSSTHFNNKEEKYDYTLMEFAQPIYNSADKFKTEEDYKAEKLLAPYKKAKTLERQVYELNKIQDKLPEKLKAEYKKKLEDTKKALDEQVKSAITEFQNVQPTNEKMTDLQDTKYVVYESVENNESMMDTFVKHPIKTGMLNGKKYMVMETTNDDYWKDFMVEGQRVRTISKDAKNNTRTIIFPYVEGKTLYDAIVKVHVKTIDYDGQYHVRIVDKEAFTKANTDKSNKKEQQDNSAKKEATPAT

Regarding “human von Willebrand factor (a stretch of the chain, chain not printed) (natural protein)”, the increase of binding of ristocetin-treated vWF over untreated vWF is 40%.
